Sequences with one replicate were seen in a single cluster, so their values are uncertain.
Test system: ATP
Test: switch fluorescence ratio, 500 uM ATP over buffer (Cy3 cluster intensity, sum of 5 cycles each) (fold (ratio)); higher = stronger signal-on switching upon ATP binding; sequences stand for … in TCGTCGGCAGCGTCAGATGTGTATAAGAGACAGTTTTTTTTTTTTTTTTTTTTTTTTT…TC
Settings: aptamer strand: ATP DNA aptamer (quencher-CACCTGGGGGAGTATTGCGGAGGAAGG + anchor), 100 nM annealed; ATP concentration: 500 uM; one replicate
How it was run: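 Clusters carrying Cy3-labelled switching strands on a modified Illumina MiSeq flow-cell were annealed to 100 nM quencher-labelled ATP aptamer and imaged in selection buffer. They were imaged again after 15 min with 500 uM ATP at 22 °C, over five buffer/ATP cycles with NaOH stripping and re-annealing in between. For each cluster, the fluorescence ratio is the summed Cy3 intensity of the target cycles divided by that of the buffer cycles, averaged per switch-domain sequence. Clusters outside 100-1000 RFU were left out.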
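Further: ATP exposure 15 min at 22 °C before imaging.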

Sequence | switch fluorescence ratio
TACGGTTATT | 0.998
TATTAAAGAG | 0.934
CTACTGGGTG | 1.42
CTCCTCATCC | 2.31
AAAATGAGAC | 1.04
AGATCTATCT | 1
TTTACAATGA | 1.08
AGCTATTCTC | 1.33
GTTTCGAAAG | 0.965
TCAAAGGCGG | 0.976
ATATTCTCT | 0.987
ATAACGCTGA | 1.02
CTCCCGGGTC | 1.29
ATCGACTATT | 1.01
ATCTAGCGAG | 1.04
GACGGCTGAG | 0.982
CTTGTTATG | 0.975
TTTGGCGGAC | 1.01
AGGAAAATA | 1.05
AAAGCTTAG | 1.02
TTGATGCTTA | 1.05
AAGCGATCTG | 0.995
CGCACATGCA | 1.26

Sequence | switch fluorescence ratio
CTGATCGCTG | 1.49
TCTTTTGCGC | 1.02
ATCGCCGCCC | 1.19
ACTCAGCGTG | 1.06
TTTTATCCC | 0.954
ACGGTGCGTC | 1.01
TTTGGGCTCT | 1.07
ACCTTATCGG | 0.966
ACACAGGAGG | 1.03
TTAAGCATTA | 1.07
TCTGCACCGG | 1.01
GTGTACCGTT | 0.982
TGACAGGGGC | 1.18
TAGATATTT | 0.921
AAATTTCCGT | 1.06
GAGGTATATA | 1.04
ATTCATTT | 0.985
ATTTCCTAAT | 1
GGTAGCTGAC | 1.26
ATCGGAGAGA | 1.01
GATTCTAGT | 0.989
GCAACATGAC | 1.45
TGATTGGTAT | 1.09

Sequence | switch fluorescence ratio
AGAGGTGCGG | 0.967
CCCGCTGGTA | 1.14
CAAGGTTATT | 1.06
GTCGAAGAGG | 0.946
ACAAGTCGCG | 0.996
TTTAGTCCGT | 0.947
GGATTCAGTG | 1.07
GAGGAGGGTG | 1.05
GAGTGAAGTA | 0.968
GCGGAGGGAG | 1.11
GGCAAAGCGG | 1.04
AGGCCAAATC | 1
GCAAGTTTTA | 0.992
GTATGTGGTC | 1
CTTGAGGAAG | 1.01
AGTCGGGCTA | 0.979
AATGAGGCGG | 0.953
GGAAGGCTC | 0.998
TATGTAATGA | 1.01
AATAATGGAC | 1.03
GCCCAACGGG | 0.99
TGTATATAAC | 0.996
TATTCCGAGA | 1.05

Sequence | switch fluorescence ratio
TTACACGTTT | 1.34
GCTGCTGTCC | 1.04
TTTAAGGACC | 1.04
TCACGTGTGT | 1.01
TTTCAGTGAA | 1.01
TCGGCAGTTG | 0.996
TTACCAAGAG | 1.02
GTTATATTA | 1.03
TTATTATTCT | 0.995
GTTTAAGACG | 0.981
GACGGGTCCT | 1.01
GGATACGTTC | 1.01
GCATCTGTTG | 0.95
CGACTAGCTA | 1.29
GACTTTGTAA | 0.982
CATTACAGCG | 0.985
CAATGCGGTC | 1.08
GGGTAGCGG | 0.977
TGAGGACTCG | 0.988
GATTAGCGAA | 1.01
TTCTCATAAA | 1.01
TCGGCACGAC | 1.09
ACAGTGAAAC | 1

Sequence | switch fluorescence ratio
GATCGTTACT | 0.971
CGTTTTAGAC | 0.98
GCTATCAATA | 1.08
CTTAGCCAG | 1.03
TGGATTGTCT | 0.984
GACATTGCTA | 1.03
TGGGTGCCGC | 0.884
TCCAGTGGCA | 0.985
AATGCAGCGG | 1.01
CCTCCGGCAT | 2.43
AGTAGATATG | 0.943
TAAAACAGAA | 0.995
GTCTGGCTAA | 1.02
GGGCATGTAA | 0.966
ATTATTTAT | 1.03
GCACCCATCC | 1.18
AACTTTCGG | 0.989
GACTTGACCA | 1.03
TTCAGTAGTG | 0.993
GTGTTGCG | 1.12
CGAAGGATAT | 1.05
GGGTCCAATT | 1.01
CCCGGTCATA | 1.03

Sequence | switch fluorescence ratio
AGGGGTTCCT | 1.02
AAAAGGGAG | 1.03
GTTAGCGGGA | 1.01
AGTCTTGGTT | 1.01
TACATTTTAT | 1.01
GAGCAAACTT | 1.49
CCTCATTGA | 1.07
GGGTCCACT | 1.01
TGGCACTATC | 1.01
GCGCAGGATC | 1.12
CATATGGTTT | 1.01
GTCTCACCGT | 1.04
GTGGGTAGTC | 1.09
CCCAGATATT | 1.01
AGGGCAGGGG | 1.04
AAAGTTCCAA | 0.983
TAACAATGTT | 0.999
TGCAATCAAC | 4.08
TCCGCCCAAG | 2.58
CACTTTACT | 1.4
ATCTGTAGTA | 0.981
TTTAGTTTAT | 1.71
ACTCGCCGTC | 0.975

Sequence | switch fluorescence ratio
GATCCCGAGC | 1.02
CGACACTGTT | 1.09
CACCTCAGTG | 1.12
CATATAGAAA | 1
GGGTACAGTA | 0.998
TAGAATGAGT | 1.05
TCTGACGGGA | 2.19
AAAGTGAGAC | 1.04
ATCAGACATC | 1.01
TCTAGAGTT | 1.04
TGCTCCGAG | 1.66
TACATTTTGC | 0.956
TTTACCTTGG | 0.983
TGGGAGCCTA | 0.951
ACTCCGGCTG | 2.6
GTTGGAACTC | 1
TTGGCACTTA | 1.02
TTTGTCACAT | 1.03
TTACGAGACG | 0.995
GTTCGTAGAT | 1.01

Source: the supplement of paper PMC10126150
